In paper PMC4336329 (PLoS ONE, 2015):
In all, about 310,000 compounds went through this assay and about 14,000 (4.5%) showed an effect of 50% or more. Effects have a minus sign here. The list shows a part of the results.

Target: human ether-à-go-go-related gene (hERG) potassium channel (human, UniProt Q12809)
Experiment: primary screen, population patch clamp on CHO cells stably expressing hERG
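Further: peak tail current of the secondary pulse compared with the same well before compound.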

Sequence of human ether-à-go-go-related gene (hERG) potassium channel (Q12809 whole entry, looked up): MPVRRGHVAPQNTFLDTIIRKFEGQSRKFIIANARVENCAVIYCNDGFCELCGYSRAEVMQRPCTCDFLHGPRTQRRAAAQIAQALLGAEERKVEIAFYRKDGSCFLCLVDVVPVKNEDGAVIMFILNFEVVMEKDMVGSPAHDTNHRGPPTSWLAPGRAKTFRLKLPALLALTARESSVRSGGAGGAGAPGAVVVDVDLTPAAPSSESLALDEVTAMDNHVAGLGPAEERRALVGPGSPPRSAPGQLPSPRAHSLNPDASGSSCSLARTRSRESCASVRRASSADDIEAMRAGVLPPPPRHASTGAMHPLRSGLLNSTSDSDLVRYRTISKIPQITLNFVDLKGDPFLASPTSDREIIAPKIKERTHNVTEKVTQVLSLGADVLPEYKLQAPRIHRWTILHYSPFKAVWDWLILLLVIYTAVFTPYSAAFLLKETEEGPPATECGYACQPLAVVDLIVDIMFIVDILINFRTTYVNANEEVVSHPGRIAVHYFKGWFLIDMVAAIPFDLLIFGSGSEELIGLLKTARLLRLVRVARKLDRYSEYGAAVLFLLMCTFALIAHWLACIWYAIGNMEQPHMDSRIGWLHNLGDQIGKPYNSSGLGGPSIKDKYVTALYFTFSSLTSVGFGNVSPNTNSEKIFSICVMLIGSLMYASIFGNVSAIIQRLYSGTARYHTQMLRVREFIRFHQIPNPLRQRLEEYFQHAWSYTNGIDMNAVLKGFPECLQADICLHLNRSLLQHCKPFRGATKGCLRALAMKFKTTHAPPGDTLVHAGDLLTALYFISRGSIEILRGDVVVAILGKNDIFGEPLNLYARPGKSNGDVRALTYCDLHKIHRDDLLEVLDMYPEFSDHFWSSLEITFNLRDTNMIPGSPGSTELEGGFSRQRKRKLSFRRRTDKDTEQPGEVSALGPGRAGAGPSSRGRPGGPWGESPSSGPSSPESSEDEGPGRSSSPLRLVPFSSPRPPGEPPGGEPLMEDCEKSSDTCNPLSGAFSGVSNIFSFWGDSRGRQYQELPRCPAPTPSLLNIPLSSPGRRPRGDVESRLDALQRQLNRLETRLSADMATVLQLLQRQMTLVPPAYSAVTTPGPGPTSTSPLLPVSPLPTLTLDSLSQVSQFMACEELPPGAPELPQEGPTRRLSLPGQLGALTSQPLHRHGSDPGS

Compound	hERG current change (%, negative = inhibition) at 10uM
Cc1ccc(C)c(OCc2cc(C(=O)N3CCC(N4CCCC(O)C4)CC3)no2)c1 (stereo not shown)	-42.6%
O=C(NC(=S)Nc1ccc(S(=O)(=O)N2CCCCC2)cc1)c1ccccc1	3.97%
CC1(C)CC(=O)C2=C(C1)OC(N)=C(C#N)C2c1cccs1 (stereo not shown)	-1.81%
Cc1ccc(C)c(Cn2nnc3c(=O)[nH]c(C(=O)NCc4ccco4)nc32)c1	-13.3%
CC(C)c1ccc(/C=C/C(=O)NC2CCCCC2)cc1	-3.16%
Cc1ccc(O)c(-c2[nH]ncc2C(=O)c2ccc(Br)cc2)c1	-6.23%
Nc1ccc(C(=O)Nc2nc3ccccc3s2)cc1	9.9%
COc1ccc(OC)c(S(=O)(=O)N2CCN(C(=O)c3ccco3)CC2)c1	16.6%
COc1ccc(/C=N/NC(=O)c2[nH]c3ccc(C)cc3c2-c2ccccc2)c(C(=O)O)c1OC	21.2%
COc1ccccc1CNC(=O)CS(=O)Cc1nc(-c2ccc(OC)c(OC)c2)oc1C (stereo not shown)	-6.47%
COCCSc1nnc(NC(=O)C2CC(=O)N(c3ccc(OC)cc3)C2)s1 (stereo not shown)	6.35%
O=C(OCC(=O)N1CCOCC1)c1cc(F)c(F)cc1Cl	-1.44%
Cc1cc(-c2nnc(CCC(=O)N(CC3CC3)CC3CCCO3)o2)no1 (stereo not shown)	10.9%
Cc1nc2cc3ccccc3cc2c(=O)[nH]1	-16%
Clc1ccc(-c2csc(NNC3=NCCCCC3)n2)cc1	5.17%
Cc1cc(C)nc(SCC(=O)Nc2ncccn2)n1	23.3%
Cc1ccc(OCC(=O)N2CCOCC2)c([N+](=O)[O-])n1	29.1%
O=C(N/N=C/c1sc(N2CCOCC2)nc1-c1ccccc1)c1cccc(S(=O)(=O)N2CCCC2)c1	29.6%
C[C@H](NC(=O)c1nc[nH]c1C(=O)N(C)Cc1ccccc1)C(=O)OC(C)(C)C	5.67%
C[C@@H](C(=O)Nc1ccc2ccccc2c1)[C@H]1C[C@]1(C)[C@H](NS(=O)(=O)c1ccc(-c2ccccc2)cc1)c1ccccc1	-6.75%
CCN(CC)CCC(O)(c1ccccc1)C1CCCCC1 (stereo not shown)	-3.58%
Cc1cc(C)cc(-n2nnnc2SCC(=O)Nc2cccc(NC(=O)c3ccco3)c2)c1	0.456%
COc1ccc(OC)c(NC(=O)CN2C(=O)NC(C)(c3ccc4c(c3)OCCO4)C2=O)c1 (stereo not shown)	0.589%
CN1CCCN(C(=O)/C=C/c2ccc(F)cc2)CC1	-23.7%
O=S(=O)(c1ccc(NC(=S)N2CCN(c3ccc(O)cc3)CC2)cc1)N1CCOCC1	2.83%
COc1ccc(/C(O)=C/c2nc3ccccc3n(-c3ccccc3)c2=O)cc1	8.38%
O=C(O)c1cc(NS(=O)(=O)c2ccc(NCc3ccccc3)c([N+](=O)[O-])c2)cc(C(=O)O)c1	20.9%
COc1ccc(CN(C)C(=O)Cn2ccc(N)nc2=O)cc1OC	23.2%

Compound	hERG current change (%, negative = inhibition) at 10uM
O=C(COC(=O)c1cccnc1Cl)Nc1ccc2c(c1)OCCO2	-11%
CCCCN(C(=O)C(C)N1C(=O)c2ccccc2C1=O)c1c(N)n(CC(C)C)c(=O)[nH]c1=O (stereo not shown)	20.1%
O=C1C(=O)c2ccccc2-c2ccccc21	0.909%
CCN(c1ccccc1)S(=O)(=O)c1ccc(C(=O)NCCCN2CCOCC2)cc1	-2.47%
CCCCn1c(N)c(N(CC(C)C)C(=O)c2cccc(S(=O)(=O)N3CCN(C(C)=O)CC3)c2)c(=O)[nH]c1=O	-17.3%
CCOC(=O)COc1c(Cl)cc(/C=C2\N=C(C)OC2=O)cc1OC	10.7%
COC(=O)c1c(C)[nH]c(C(C)=O)c1C	4.91%
CCn1c2ccc(/C(C)=N\O)cc2c2cc(/C(C)=N\O)ccc21	10.2%
Cc1cc(C(=O)N/N=C/c2ccc(C)s2)n[nH]1	19.9%
CSc1ccc(/C=N/N2CCN(Cc3ccccc3Cl)CC2)cc1	21.3%
Cc1ccc(S(=O)(=O)N2CCN(C(=O)c3cccs3)CC2)cc1C	-18.1%
Cc1c(CC(=O)NCC(C)C)c(=O)oc2cc3c(cc12)CCC(C)(C)O3	10.6%
COC(=O)C1CSC(C(=O)OC)N1C(=O)Nc1ccccc1 (stereo not shown)	3.88%
CC(C)c1ccc(NC(=O)C2CC(=O)N(C3CCCC3)C2)cc1 (stereo not shown)	3.66%
CN(C)c1ccc(NC(=S)NC23CC4CC(CC(C4)C2)C3)cc1	27.6%
Cn1c(N)nc2nc(CCc3ccccc3)c(=O)[nH]c2c1=O	12.6%
NS(=O)(=O)c1ccc(CCNC(=O)C2CCCO2)cc1 (stereo not shown)	16.3%
NC(=O)NC(CC(=O)N1CCc2ccccc2C1)c1ccc(Cl)cc1 (stereo not shown)	2.09%
CCn1c(=O)c2sccc2n(Cc2ccccc2)c1=O	-3.52%
NS(=O)(=O)c1cccc(NC(=O)c2ccno2)c1	11%
CCOC(=O)C1CCN(C(=O)CN(C)S(=O)(=O)c2ccc3c(c2)c(=O)n(C)c(=O)n3C)CC1	-1.96%
COc1ccc(S(=O)(=O)n2nc(OC(C)=O)cc2N)cc1	4.23%
CCn1c(COc2cc(C)ccc2C(C)C)nnc1SCC(=O)Nc1nccs1	5.52%
O=C(NCCCN1CCCC1=O)c1ccc2c(=O)n(-c3ccccc3F)c(=S)[nH]c2c1	21.8%
O=c1nc(N2CCCC2)nc(Nc2ccccc2)[nH]1	11.9%
Cc1c(CCO)c(=O)n(-c2ccccc2)n1S(=O)(=O)c1c(Cl)cc(Cl)cc1Cl	-4.12%
O=C(NCCn1cc(SCc2ccc(F)cc2)c2ccccc21)c1c(F)cccc1F	9.31%
